# Reference: PubChem BioAssay AID624170 (National Center for Advancing Translational Sciences (NCATS), 2012)
# Several values for one entry are separate records, joined by “and”; a condition that tells them apart may be missing. Identical values can stand only once. About 850 (0.21%) of roughly 410,000 compounds were called active. Inconclusive results, whose numbers are uncertain, are shown with a selection of clear calls. Calls follow the shape of the dose curve; as a rule, active = well fitted inhibition curve with a large enough effect; inconclusive = small, poorly fitted or top-dose-only effect, or another doubt; inactive = no such curve, though single readings can be large or run the other way. Potencies of inconclusive entries are left out as doubtful fits.
# Molecular target: Glutaminase kidney isoform, mitochondrial (Homo sapiens) (UniProt O94925)
# UniProt O94925, sequence (O94925 whole entry, looked up, canonical isoform): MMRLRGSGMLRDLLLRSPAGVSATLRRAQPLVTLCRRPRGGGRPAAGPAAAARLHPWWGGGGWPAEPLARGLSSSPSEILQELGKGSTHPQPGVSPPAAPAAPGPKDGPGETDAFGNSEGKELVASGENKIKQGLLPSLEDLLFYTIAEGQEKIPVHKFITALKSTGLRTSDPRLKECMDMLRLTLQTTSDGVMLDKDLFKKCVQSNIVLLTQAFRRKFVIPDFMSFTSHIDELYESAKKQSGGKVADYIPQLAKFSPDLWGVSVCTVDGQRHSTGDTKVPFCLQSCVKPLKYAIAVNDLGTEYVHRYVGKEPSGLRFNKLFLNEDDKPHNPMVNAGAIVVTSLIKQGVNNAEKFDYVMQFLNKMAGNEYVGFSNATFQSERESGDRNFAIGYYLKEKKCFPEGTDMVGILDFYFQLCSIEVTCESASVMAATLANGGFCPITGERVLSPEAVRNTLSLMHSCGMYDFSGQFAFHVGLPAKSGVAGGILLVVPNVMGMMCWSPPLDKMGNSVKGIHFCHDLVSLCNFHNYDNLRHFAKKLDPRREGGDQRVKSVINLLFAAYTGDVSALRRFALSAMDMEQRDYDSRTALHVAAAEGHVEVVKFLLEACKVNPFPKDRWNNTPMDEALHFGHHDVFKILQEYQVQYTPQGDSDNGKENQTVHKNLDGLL
# Experiment: qHTS for Inhibitors of Glutaminase (GLS)
# Settings: GLS enzymatic activity, qHTS titration; series mostly up to 45.5 µM; activity change, negative = inhibition: at the top concentration
# Summary of the method: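 hKGA in 45 mM KH2PO4 (pH 8.2), 0.02% Tween-20 with compound, then 1mM L-Glutamine (stock as added) plus glutamate oxidase/HRP/Amplex red coupling mix. Fluorescence read initially and after 30 min at RT; signal change reflects glutamate formation.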
# % is scaled to controls: 0 for no effect and ±100 for the full control effect; potency is read from the fitted curve at half-maximal effect; tags tell the direction and shape of the fitted curve.
Structure (SMILES),"activity change, negative = inhibition",Potency
COc1ccc2[nH]c(C(=O)N/N=C/c3ccccc3OC)cc2c1,inactive: 0.591%,
CCOC(=O)C(=CNc1ccc(-c2ccco2)c(Cl)c1)C(=O)OCC,inactive: 2.06%,
COC(=O)C(C(C)=O)C1=C/C(=N\S(=O)(=O)c2ccc(C)cc2)c2ccccc2C1=O (stereo not drawn),inactive: 52.5%,
CCCNc1c(N)n(-c2ccccc2)c(=O)[nH]c1=O,,"inconclusive [inhibitor, single point]"
N/C(=N\O)c1cn(Cc2ccccc2Cl)c2ccccc12,,"inconclusive [inhibitor, single point]"
Cc1cccc(C)c1OCCCCn1c(C2CC(=O)N(c3ccc(F)cc3)C2)nc2ccccc21 (stereo not drawn),inactive: 5.84%,
CC1=NNC(=O)/C1=C\c1cn(-c2ccccc2)nc1-c1ccccc1,,"inconclusive [inhibitor, single point]"
CSCCC(NC(=O)COc1ccccc1)C(=O)N1CCN(c2ccccc2O)CC1 (stereo not drawn),,"inconclusive [inhibitor, partial curve]"
COc1ccc(OC)c(S(=O)(=O)Nc2cc3c(cc2N2CCCC2)n(C)c(=O)c(=O)n3C)c1,,"inconclusive [inhibitor, single point]"
O=C(c1ccc(F)cc1)C(CN1CCOCC1)c1ccccc1 (stereo not drawn),inactive: 8.27%,
CCN(c1ccccc1)S(=O)(=O)c1ccc(C(=O)NCc2ccco2)cc1,inactive: 1.47%,
Cc1cc(C(=O)NN=C2CCCCC2)c2ccccc2n1,,"inconclusive [inhibitor, single point]"
COc1ccccc1NNC(=O)c1cccnc1Oc1ccccc1,,"inconclusive [inhibitor, partial curve]"
Cc1c(C(=O)N(C)Cc2ccccc2)oc2ccc(S(=O)(=O)N3CCCC3)cc12,inactive: -20.3%,
CCN(CC)c1ccc2c(-c3ccc(S(=O)(=O)O)cc3S(=O)(=O)[O-])c3ccc(=[N+](CC)CC)cc-3oc2c1,,"inconclusive [inhibitor, partial curve]"
CC1(C)S[C@@H]2[C@H](NC(=O)[C@H](N)c3ccccc3)C(=O)N2[C@H]1C(=O)O,,active: 12.6 µM and active: 10 µM
CCOCCCn1c(SCC(=O)NCc2ccc3c(c2)OCO3)nc2ccccc2c1=O,,"inconclusive [inhibitor, single point]"
CCOc1ccccc1NS(=O)(=O)c1c(C)nc2sccn2c1=O,inactive: 19.9%,
Oc1ccc(Cl)cc1C=Nc1ccc2c3c(cccc13)CC2,,"inconclusive [inhibitor, partial curve, poor fit]"
Nc1ccc(S(=O)(=O)c2cc(O)c3ccccc3c2O)cc1,,"inconclusive [inhibitor, single point]"
O/C(=C\c1ccc2ccccc2n1)c1ccc(O)cc1O,inactive: -10.4%,
Cc1ccnc(NS(=O)(=O)c2ccc(NC(=O)C3COc4ccccc4O3)cc2)n1 (stereo not drawn),,"inconclusive [inhibitor, single point]"
N#Cc1c[nH]n2c(NC3CCCCC3)c(-c3ccc(F)cc3)nc12,,"inconclusive [inhibitor, partial curve]"

Structure (SMILES),"activity change, negative = inhibition",Potency
COc1cccc2sc(NNC(=O)C3=COCCO3)nc12,,"inconclusive [inhibitor, full curve]"
COc1cc(C2C(C(=O)c3ccc(C)o3)=C(O)C(=O)N2CCc2ccccc2)ccc1O (stereo not drawn),,"inconclusive [inhibitor, partial curve]"
Brc1ccc(NC2=Nc3ccccc3CC2)cc1,,"inconclusive [inhibitor, single point]"
COC(=O)C1=C(C)NC(=S)NC1c1ccc(-c2ccccc2C(=O)OC)o1 (stereo not drawn),inactive: -20.1%,
COc1cccc(Nc2nc3cc(C)ccc3cc2C)c1,,"inconclusive [inhibitor, partial curve, poor fit]"
O=C(O)C1Cc2ccccc2CN1C(=O)c1ccco1 (stereo not drawn),,"inconclusive [inhibitor, single point]"
COCCNC(=O)c1cc2ncc(Br)cn2n1,inactive: -10.8%,
COc1ccc(-c2nc3ccc(C4=C(C)CC(=O)NN4)cc3[nH]2)cc1,,active: 31.6 µM
COc1ccc(C(=O)Nc2cccc(C(=O)OCc3cc(=O)n4nc(C5CC5)sc4n3)c2)cc1,,"inconclusive [inhibitor, partial curve, poor fit]"
NNC(=O)CS(=O)(=O)CS(=O)(=O)CC(=O)NN,,"inconclusive [inhibitor, partial curve, poor fit]"
Cc1ccc(O)c(N=Cc2sc3ccccc3c2Cl)c1,,active: 11.2 µM
COC(=O)c1ccc2c(c1)C(C)(C)C(/C=C/c1ccc(OC)c(OC)c1OC)=[N+]2C,,"inconclusive [inhibitor, single point]"
S=C(c1ccc(-c2cccc(Cl)c2)o1)N1CCCCC1,,"inconclusive [inhibitor, single point]"
Cc1cc(C)nc(N/N=C2/CCCC/C2=C\c2ccccc2)n1,,"inconclusive [inhibitor, single point]"
COc1cccc(/C=C2/NC(=O)N(CC(=O)Nc3ccc(C)cc3)C2=O)c1OCc1cccc(C(=O)O)c1,,"inconclusive [inhibitor, single point]"
O=C(Nc1cc(-c2ccccc2)sc1C(=O)O)c1cccc(F)c1,,"inconclusive [inhibitor, single point]"
Cc1cnc(C(=O)OC(C)C(=O)Nc2ccc(Cl)cn2)cn1 (stereo not drawn),,"inconclusive [inhibitor, single point]"
COc1ccc(-c2cc3cc(OC)c(OC)cc3c(C)n2)cc1,,"inconclusive [inhibitor, full curve]"
O=c1c2ccccc2n2c(=S)[nH]nc2n1-c1ccccc1,,"inconclusive [inhibitor, partial curve, poor fit]"
C#CCOCCOCCOCCNc1nc(N2CCN(C(=O)CCCCCCCCCCNC(=O)Cn3cc(C[C@@H](C)O)nn3)CC2)nc(N2CCN(C(=O)CCCCCCCCCCNC(=O)[C@@H]([C@H](C)CC)n3cc(CCCCCN)nn3)CC2)n1,,"inconclusive [inhibitor, single point]"
Cc1ccc(C(C)C)c(OCc2ccc(C(=O)N/N=C/c3cccc(O)c3O)cc2)c1,,"inconclusive [inhibitor, partial curve]"
COC(=O)c1ccccc1NC(=O)c1noc2c1CCC2,,"inconclusive [inhibitor, single point]"
CCN(CC)c1ccc2cc(S(=O)(=O)c3ccc(Cl)cc3)c(=O)oc2c1,inactive: 0.147%,

Structure (SMILES),"activity change, negative = inhibition",Potency
O=c1cc(-c2ccc(O)cc2)oc2c([C@@H]3O[C@H](CO)[C@@H](O)[C@H](O)[C@H]3O)c(O)c([C@@H]3O[C@H](CO)[C@@H](O)[C@H](O)[C@H]3O)c(O)c12,inactive: 11.1%,
O=C(N/N=C/c1coc2ccccc2c1=O)c1cc2ccccc2o1,,"inconclusive [inhibitor, full curve]"
O=C(Cc1nnc(NC(=O)c2ccccc2)s1)N/N=C\c1ccc(O)c(O)c1,,"inconclusive [inhibitor, single point]"
C=CCn1c(CSCc2ccc(F)cc2)n[nH]c1=S,inactive: -17.3%,
COc1ccc(S(N)(=O)=O)cc1C(=O)OCC(=O)Nc1ncc(Cl)c(C)c1Cl,,"inconclusive [inhibitor, single point]"
O=C(CC(NCc1ccccn1)C(=O)O)Nc1ccccc1Cl (stereo not drawn),inactive: -5.74%,
COC1=C/C(=C/c2c(N)n3nc(CC(=O)N4CCOCC4)sc3nc2=O)C=CC1=O,,"inconclusive [inhibitor, partial curve]"
CCCNC(=O)Nc1cc(OC)c(OC)cc1Cc1nccc2cc(OC)c(OC)cc12,inactive: 14.4%,
Cc1cc(NC(=O)CN2C(=O)/C(=C/c3ccc(C(C)C)cc3)SC2=S)no1,inactive: 6.22%,
CCOc1cc(/C=C2\CCCc3c2nc2ccccc2c3C(=O)O)ccc1OC,inactive: -6.75%,
O=C(COC(=O)CCc1nc2ccccc2c(=O)[nH]1)Nc1ccccc1,,"inconclusive [inhibitor, partial curve]"
N#Cc1c(N2CCCC2)nc(N)c2c(N)nc(N3CCCC3)cc12,inactive: 17.5%,
CC(C)Oc1ccc(C(=O)/C=C2/C(=O)Nc3ccccc32)cc1,inactive: 10.5%,
Cc1cccc(NC(=O)CNC(=O)c2cccc(-n3cccc3)c2)c1C,inactive: -29.7%,
Cc1cc(=O)n(C2CCS(=O)(=O)C2)[nH]1 (stereo not drawn),inactive: 17.4%,
C/C(=N\NC(=S)Nc1ccccc1C)c1ccc(O)cc1,,active: 10 µM
C#CCOCCOCCOCCNc1nc(N2CCN(C(=O)CCCCCCCCCCNC(=O)[C@H](CCCCN)n3cc(CCO)nn3)CC2)nc(N2CCN(C(=O)CCCCCCCCCCNC(=O)[C@H](CCCCN)n3cc(C[C@@H](C)CC)nn3)CC2)n1,,"inconclusive [inhibitor, single point]"
O=C(NC1(C(F)(F)F)N=C2SCCN2C1=O)C1CCCCC1 (stereo not drawn),,"inconclusive [inhibitor, single point]"
CC(NC(=O)c1ccc(Cn2cc([N+](=O)[O-])cn2)cc1)c1ccccc1 (stereo not drawn),,"inconclusive [inhibitor, single point]"
Nc1nc(SCC(=O)Nc2ccc(Cl)c([N+](=O)[O-])c2)n[nH]1,,"inconclusive [inhibitor, single point]"
O=[N+]([O-])c1cc2ccccc2c(O)c1O,,"inconclusive [inhibitor, single point]"
Cc1cccn2c(=O)c3cc(C(=O)NCCc4ccccc4)c(=N)n(Cc4ccco4)c3nc12,inactive: -3.64%,
